Test results as given in the RNAGym collection of RNA variant scans (doi:10.1093/nar/gkz1192).
Read counts are not given, so values of variants with three or more changes are uncertain.

B1: CPEB3 Ribozyme (parent)
chain: UAACAGGGGGCCACAGCAGAAGCGUUCACGUCGCAGCCCCUGUCAGAUUCUGGUGAAUCUGCGAAUUCUGCUGUAUAUCUC

Variants of: B1
Test: self-cleavage, relative activity (ratio to wild type); higher = more cleavage; in vitro, sequencing
In short: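 Relative activity compares each variant's cleaved/total read fraction with that of the unmutated ribozyme. To get these fractions, barcoded CPEB3 ribozyme libraries from rounds of error-prone PCR were transcribed with T7 RNA polymerase for 5 hours at 37°C and then given 15 min of DNase I treatment before EDTA was added. The RNAs were reverse transcribed with template switching and sequenced on Illumina, and DNA sequencing linked barcodes to variants. A minimum of 5 reads applied, and three batches were averaged.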
In the case of U49C U60A C68A, the self-cleavage is reported as 0.36.
U49C U60A C81U showed a self-cleavage of 0.17.
U49C U60A U72A gave a self-cleavage of 0.13.
U49C U60C A64G gave a self-cleavage of 0.33.
In the case of U49C U60C A64U, the self-cleavage is reported as 0.14.
Variant U49C U60C A75U has a self-cleavage of 0.61.
For U49C U60C U66C, the self-cleavage was 0.13.
With U49C U60C U69A the self-cleavage was 0.23.
With U49C U60C U74A the self-cleavage was 0.16.
For U49C U66C U69C, the self-cleavage was 0.09.
U49C U66C U72C showed a self-cleavage of 0.33.
In the case of U49C U66C U74A, the self-cleavage is reported as 0.6.
Variant U49C U67A U76C has a self-cleavage of 0.23.
Variant U49C U67A U80C has a self-cleavage of 0.08.
Variant U49C U67C U69A has a self-cleavage of 0.21.
With U49C U67C U69C A75C the self-cleavage was 0.14.
Variant U49C U67C U72A has a self-cleavage of 0.12.
Work on U49C U67C U74C yielded a self-cleavage of 0.17.
With U49C U69A U78C the self-cleavage was 0.15.
For U49C U69C U72C, the self-cleavage was 0.25.
In the case of U49C U72A U76C, the self-cleavage is reported as 0.13.
With U49C U72A U78C the self-cleavage was 0.26.
Variant U49C U76A U78C has a self-cleavage of 0.57.
Variant U49C U76G A77U has a self-cleavage of 0.19.
For U49C U78A C81U, the self-cleavage was 0.38.
For U49G A56U U74C, the self-cleavage was 0.84.
In the case of U49G A57G U69C, the self-cleavage is reported as 0.36.
Variant U49G C68U U72C has a self-cleavage of 0.48.
U49G G55C A57U gave a self-cleavage of 0.48.
In the case of U49G U51A U60C U80A, the self-cleavage is reported as 0.1.
For U49G U51A U76A, the self-cleavage was 0.33.
U49G U51C A65G showed a self-cleavage of 0.31.
Work on C50A A56G A65G yielded a self-cleavage of 0.42.
In the case of C50A A56G A77U, the self-cleavage is reported as 0.66.
Variant C50A A56G G70A U78A has a self-cleavage of 0.11.
For C50A A56U U66C, the self-cleavage was 0.11.
In the case of C50A A56U U72A, the self-cleavage is reported as 0.34.
C50A A57G U58C gave a self-cleavage of 0.15.
In the case of C50A A64G U74C, the self-cleavage is reported as 1.15.
For C50A A65G U69A, the self-cleavage was 0.14.
C50A C62A U69G showed a self-cleavage of 0.16.
In the case of C50A G61A U74A, the self-cleavage is reported as 0.71.
In the case of C50A U51A G63A A65U U69A U72A, the self-cleavage is reported as 0.42.
C50A U51C U69C G73A showed a self-cleavage of 0.94.
Work on C50A U58A U69C yielded a self-cleavage of 0.18.
Variant C50A U69A A77U has a self-cleavage of 0.19.
Work on C50A U72C U80C yielded a self-cleavage of 1.2.
With C50A U76A U80C the self-cleavage was 0.89.
With C50G U51C A56G the self-cleavage was 0.3.
C50G U54C G63U U74C showed a self-cleavage of 1.01.
With C50U G63A A64C the self-cleavage was 0.29.
Work on C50U U51A U54C U67C yielded a self-cleavage of 0.22.
Variant C50U U51A U69C has a self-cleavage of 0.52.
Variant C50U U51G U67A has a self-cleavage of 0.22.
C50U U54A U60C A64C U76C U78C gave a self-cleavage of 0.14.
Work on C50U U54C A57G yielded a self-cleavage of 0.55.
Work on C50U U54C A64U U69A yielded a self-cleavage of 0.38.
C50U U60C U66C U78C showed a self-cleavage of 0.13.
Work on C50U U60C U78C yielded a self-cleavage of 0.2.
Work on U51A A56G A57U U69C yielded a self-cleavage of 0.18.
Variant U51A A56G A65U has a self-cleavage of 0.11.
Variant U51A A56G G61A G70A has a self-cleavage of 0.5.
U51A A56G U58G gave a self-cleavage of 0.22.
In the case of U51A A56G U60C, the self-cleavage is reported as 0.42.
For U51A A56G U60C G70C, the self-cleavage was 0.25.
With U51A A56G U69A the self-cleavage was 0.15.
Variant U51A A56U A64C has a self-cleavage of 0.18.
U51A A56U A77G gave a self-cleavage of 0.36.
Variant U51A A56U U74A U78A has a self-cleavage of 1.1.
In the case of U51A A57G G61A A65G, the self-cleavage is reported as 0.21.
For U51A A57G U60C U67C, the self-cleavage was 0.42.
With U51A A57G U67C U78C the self-cleavage was 0.22.
With U51A A64U U69A the self-cleavage was 0.35.
U51A A64U U69C gave a self-cleavage of 0.44.
Variant U51A A64U U78C has a self-cleavage of 0.21.
Work on U51A A65G U69C yielded a self-cleavage of 0.21.
Work on U51A A65G U69C U72C U78C yielded a self-cleavage of 0.56.
U51A A65U U67C U76C showed a self-cleavage of 0.33.
For U51A C62U U66C U78C, the self-cleavage was 0.17.
With U51A C62U U72C A75G the self-cleavage was 0.2.
Work on U51A C68A U78C yielded a self-cleavage of 0.56.
For U51A G52A A57G G63A U66C G73A A77G, the self-cleavage was 0.65.
U51A G52C U69A gave a self-cleavage of 1.01.
Variant U51A G52U U54C has a self-cleavage of 0.87.
